Results taken from PubChem BioAssay AID686979 (National Center for Advancing Translational Sciences (NCATS), 2013).
About 50,000 (12%) of roughly 420,000 compounds were called active. The shares of active, inactive and inconclusive entries below differ from those in the screen. The call rests on the fitted dose curve; in most records, active means well fitted inhibition curve with a large enough effect; inconclusive means small, poorly fitted or top-dose-only effect; inactive means flat fitted curve, though single readings scatter. Potencies of inconclusive entries are left out as doubtful fits.

Assay: qHTS for Inhibitors of human tyrosyl-DNA phosphodiesterase 1 (TDP1): qHTS in cells in presence of CPT; further: nearly all actives have a fitted effect of over 55% in size
Details: chicken DT40 Tdp1-/-;hTDP1 cells + 20 nM CPT, ATP luminescence, 48 h; activity change, negative = growth inhibition: at 46.2 µM (top of the series)
Method in brief: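 Chicken DT40 Tdp1-/- cells stably complemented with human TDP1 were seeded at 400 cells/well in medium containing 20 nM camptothecin, exposed to pin-transferred compounds, and grown at 37 °C for at least 48 hr. Viability was read as ATP luminescence.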
On the % scale 0 is the no-effect control and ±100 the full control effect; potency means the concentration at half of the fitted maximal effect; tags describe the fitted curve by direction and shape.

Row | Structure (SMILES) | Potency | activity change, negative = growth inhibition
1 | Cc1ccc(NC(=O)c2sc3ncnc(N4CCN(c5ccccn5)CC4)c3c2C)c(C)c1 | inconclusive [inhibitor, single point] | 
2 | COc1ccc2c(c1)OCC(Cc1ccc(OC)c(OC)c1)C2=O (stereo not drawn) | inconclusive [inhibitor, single point] | 
3 | O=C(c1ccc(N2CCCC2=O)cc1)N1CCOCC1 |  | inactive: 1.24%
4 | CCn1cnc2cc(NCc3ccc(OC)cc3)ccc21 |  | inactive: -24.6%
5 | Nc1cc(S(=O)(=O)N2CCOCC2)ccc1Oc1ccc(F)cc1 | inconclusive [inhibitor, single point] | 
6 | COc1cc2c(cc1C1C(C#N)=C(N)OC3=C1C(=O)CC(C)(C)C3)OCO2 (stereo not drawn) |  | inactive: 11.7%
7 | COc1ccc2oc(C(=O)OC(C)C(=O)N(C)c3ccccc3)c(C)c2c1 (stereo not drawn) | inconclusive [inhibitor, single point] | 
8 | O=[N+]([O-])c1ccc(N2CCN(Cc3cccc([N+](=O)[O-])c3)CC2)cc1 | inconclusive [inhibitor, single point] | 
9 | N#CC1(c2ccccc2)CCC(=O)N1Cc1ccccc1 (stereo not drawn) |  | inactive: -0.826%
10 | CNC(CC(=O)c1ccc([N+](=O)[O-])cc1)C(Cl)(Cl)Cl (stereo not drawn) | active: 2.31 µM | 
11 | COC(=O)c1ccccc1NC(=O)COC(=O)c1ccc(C)c(NC(=O)c2ccco2)c1 | inconclusive [inhibitor, single point] | 
12 | CCNC(=O)NC(=O)C(C)OC(=O)c1oc2ccccc2c1CSC1CCCCC1 (stereo not drawn) | inconclusive [inhibitor, single point] | 
13 | Cc1nc(Cl)cc(N/N=C/c2ccc(O)cc2O)n1 | inconclusive [inhibitor, single point] | 
14 | O=[N+]([O-])c1ccc(-c2cc3ccccc3[nH]2)cc1 | inconclusive [inhibitor, single point] | 
15 | CCN(C(=O)CCc1ccccc1)C1CCCCC1 | inconclusive [inhibitor, single point] | 
16 | CC1CCCCC1NC(=O)CSc1nc2ccccc2c(=O)n1Cc1ccco1 (stereo not drawn) | inconclusive [inhibitor, single point] | 
17 | CC(C)/C=C/CN1CCN(CCCc2ccccc2)C(CCO)C1 (stereo not drawn) | inconclusive [inhibitor, single point] | 
18 | COc1ccc(NC(=O)N2CC[C@@]3(CCCN(C(=O)c4cccn4C)C3)C2)cc1 |  | inactive: 1.36%
19 | COc1ccc(C(NCC(=O)NC(C)c2ccc(Cl)cc2)c2ccccc2)cc1 (stereo not drawn) | inconclusive [inhibitor, single point] | 
20 | Cc1cccc(NC(=O)c2ccc3c(c2)OCCO3)n1 | inconclusive [inhibitor, single point] | 
21 | O=C(Cn1c(=O)n(CC2CCCO2)c(=O)c2ccccc21)Nc1cccc(Cl)c1 (stereo not drawn) | inconclusive [inhibitor, single point] | 
22 | CCOc1ccccc1NC(=O)Nc1cnccn1 |  | inactive: 1.09%
23 | COc1ccc(-c2csc(Nc3cccc(C)n3)n2)cc1C |  | inactive: -8.88%
24 | COc1cc(C(=O)Oc2ccc(Br)cc2C(=S)N2CCOCC2)cc(OC)c1OC | inconclusive [inhibitor, single point] | 

Row | Structure (SMILES) | Potency | activity change, negative = growth inhibition
25 | C=CCSc1nc2sc(C)c(C)c2c(=O)[nH]1 | inconclusive [inhibitor, partial curve, poor fit] | 
26 | COC(=O)c1ccc(COc2ccccc2/C=C(\C#N)C(=O)Nc2ccccc2C)cc1 |  | inactive: 6.19%
27 | COc1ccc(/C=C(/C#N)C(=O)NC2CCCCC2)cc1Br | inconclusive [inhibitor, single point] | 
28 | C[C@@H](C(=O)NCCc1ccccc1F)N1C(=O)N2CCc3c([nH]c4ccccc34)[C@@]2(C)C1=O | active: 11.6 µM | 
29 | CC1CCC(C(C)C)C(OCC[N+](C)(C)C)C1 (stereo not drawn) | inconclusive [inhibitor, single point] | 
30 | CCOC(=O)Cc1nnc(NC(=O)CSc2ccc(Cl)cc2)s1 | inconclusive [inhibitor, full curve, poor fit] | 
31 | Cc1oc2ccc(O)c(CN(C)C)c2c1C(=O)c1ccccc1 | inconclusive [inhibitor, single point] | 
32 | CC(=O)N1SC(N)=NC1c1ccccc1 (stereo not drawn) |  | inactive: 4.22%
33 | Cc1csc(NC(=O)c2ccc(OCC3CCCO3)cc2)n1 (stereo not drawn) | inconclusive [inhibitor, single point] | 
34 | Cc1nc2cnc(N(C)C)nc2n(CCC#N)c1=O |  | inactive: 10.5%
35 | C=CCOC(=O)C1=C[C@@H](c2ccc(C(F)(F)F)cc2)[C@H](CCCO)[C@@H](OCC)O1 | active: 23.1 µM | 
36 | CC(=O)c1c(C)[nH]c(C(=O)CSc2nnc(N)s2)c1C | inconclusive [inhibitor, single point] | 
37 | CCCS(=O)(=O)NC(=O)C1(C)CCCN(C(=O)c2ccccc2F)C1 (stereo not drawn) |  | inactive: -0.809%
38 | N#Cc1c(N(CCO)CCO)nc(N)c2c(N)nc3c(c12)CC(=O)N3CC1CCCO1 (stereo not drawn) |  | inactive: -2.72%
39 | CCc1nc2ccc(C(=O)Nc3ccc(C(N)=O)cc3)cn2c1N(C)CCC(C)C | active: 18.4 µM | 
40 | Cc1ccccc1C(=O)Nc1ccc2c(C#N)c3nc4ccccc4nc3n2c1 | active: 20.6 µM | 
41 | Nc1c(Cl)cc(-c2csc(NCCc3nc4cc(Cl)c(Cl)cc4n3CCCO)n2)cc1Cl | inconclusive [inhibitor, partial curve] | 
42 | Cc1nn(Cc2ccccc2)c(C)c1N |  | inactive: -2.58%
43 | CC1(C)CC(=O)C2=C(C1)Oc1ncn(CCCO)c(=N)c1C2c1ccccc1 (stereo not drawn) |  | inactive: -13.3%
44 | Cc1ccc2oc(-c3cc(NC(=O)c4ccco4)ccc3Cl)nc2c1 | inconclusive [inhibitor, single point] | 
45 | O=C(NCc1ccc(Cl)cc1)c1ccc(Br)o1 | inconclusive [inhibitor, single point] | 
46 | Cc1cc(NC(=O)COC(=O)CSc2nc3cc(Cl)ccc3n2Cc2ccccc2)no1 |  | inactive: -5.07%
47 | CSc1ncc(C(=O)Nc2ccc(F)cc2F)c(-c2ccccc2)n1 |  | inactive: -2.96%
48 | CCCc1nc2ccccc2c(=O)n1-c1ccc(C(=O)OCC)cc1 | inconclusive [inhibitor, single point] | 
